# Laboratory results taken from the RNAGym collection of RNA variant scans (doi:10.1101/gad.245936.114).
# Variants at the floor of the assay are shown more often than the library holds them.
# B1: tRNA (parent)
# chain: CUCUCGGUAGCCAAGUUGGUUUAAGGCGCAAGACUUUAAUUUAUCACUACGAAAUCUUGAGAUCGGGCGUUCGACUCGCCCCCGGGAGAUUUUUUCCUCGAGCAA
# Variants of: B1
# Assay: nonsense suppression (GFP-seq) (ratio to wild type); higher = more function; SUP4oc tRNA, yeast GFP reporter sort-seq
# Summary of the method: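 Raffinose/galactose medium with 80 mg/L adenine was used to grow yeast carrying genome-integrated tRNA variants (~3% random-mutation library), RFP, and a galactose-driven GFP ochre reporter. Cells went into GFP/RFP bins, which were Illumina-sequenced, and variants with ≥100 reads and ≥30 cells were scored. Nonsense suppression (GFPSEQ) is the per-bin median GFP/RFP weighted by estimated cell share and expressed relative to the unmutated parent tRNA.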
row,Variant,nonsense suppression
1,G32U G65A G66C,≤ 0.026
2,G32U G65C,≤ 0.026
3,G32U G67A U71G,≤ 0.026
4,G32U G69A,≤ 0.026
5,G32U G84A A89G,≤ 0.026
6,G32U G85C,≤ 0.026
7,G32U U57A C81G A87U,≤ 0.026
8,G32U U63G G65U,≤ 0.026
9,G32U U70C,≤ 0.026
10,G32U U70G,≤ 0.026
11,G32U U71C G84A,≤ 0.026
12,G32U U71G,≤ 0.026
13,A33C,≤ 0.026
14,A33C A54C G84U,≤ 0.026
15,A33C A54C U57G C80U,≤ 0.026
16,A33C A54G,≤ 0.026
17,A33C A54G U76C,≤ 0.026
18,A33C A54U,≤ 0.026
19,A33C A60G A87C,≤ 0.026
20,A33C A60U U71C,≤ 0.026
21,A33C A62C G66C,≤ 0.026
22,A33C A62C G67C,≤ 0.026
23,A33C A62G,≤ 0.026
24,A33C A87C,≤ 0.026

row,Variant,nonsense suppression
1,A33C C34U A74U,≤ 0.026
2,A33C C56A G78A,≤ 0.026
3,A33C C56A U58G G85U,≤ 0.026
4,A33C C56G C81U,≤ 0.026
5,A33C C72G C79A,≤ 0.026
6,A33C C80A A87G,≤ 0.026
7,A33C C80A A87U,≤ 0.026
8,A33C C80A G85C,≤ 0.026
9,A33C C83A G84U,≤ 0.026
10,A33C G67A,≤ 0.026
11,A33C G67C,≤ 0.026
12,A33C G67U C80U,≤ 0.026
13,A33C G78C,≤ 0.026
14,A33C G86A,≤ 0.026
15,A33C U35C C83A,≤ 0.026
16,A33C U57G,≤ 0.026
17,A33C U58A,≤ 0.026
18,A33C U58C A60C C72G,≤ 0.026
19,A33C U58G,≤ 0.026
20,A33C U63C,≤ 0.026
21,A33C U63C U70A,≤ 0.026
22,A33G,0.346
23,A33G A54U U71G,≤ 0.026
24,A33G A74C C80A,≤ 0.026

row,Variant,nonsense suppression
1,A33G A87G G88A,≤ 0.026
2,A33G A89U,≤ 0.026
3,A33G C34A G73C G85C A89C,≤ 0.026
4,A33G C34G,≤ 0.026
5,A33G C34G G73C C83G,≤ 0.026
6,A33G C34G U55A U76A G84C,≤ 0.026
7,A33G C75G,0.216
8,A33G C75U,0.275
9,A33G C77A,≤ 0.026
10,A33G C77U G78A,≤ 0.026
11,A33G C79A C81A,≤ 0.026
12,A33G C79G,≤ 0.026
13,A33G C80G,≤ 0.026
14,A33G C80U,0.0422
15,A33G C81G,≤ 0.026
16,A33G C82U,≤ 0.026
17,A33G G59A A87G,≤ 0.026
18,A33G G59A C77A C83A G88A,≤ 0.026
19,A33G G59U,≤ 0.026
20,A33G G59U C79A,≤ 0.026
21,A33G G61A,0.0709
22,A33G G61A C79A,≤ 0.026
23,A33G G61C A89G,≤ 0.026
24,A33G G65A G85U,≤ 0.026

row,Variant,nonsense suppression
1,A33G G67A,≤ 0.026
2,A33G G67C,≤ 0.026
3,A33G G67C C77G,≤ 0.026
4,A33G G67C C77U,≤ 0.026
5,A33G G69A,≤ 0.026
6,A33G G73C,≤ 0.026
7,A33G G78A,≤ 0.026
8,A33G G86A,≤ 0.026
9,A33G G88A,≤ 0.026
10,A33G G88C,≤ 0.026
11,A33G U35G,≤ 0.026
12,A33G U35G U55A G69A,≤ 0.026
13,A33G U55A A74C,≤ 0.026
14,A33G U57C,≤ 0.026
15,A33G U57C U70G A89G,≤ 0.026
16,A33G U57G G69A,≤ 0.026
17,A33G U58G,≤ 0.026
18,A33G U58G G66C,≤ 0.026
19,A33G U58G U63G,≤ 0.026
20,A33G U63A,0.031
21,A33G U63C C75G,≤ 0.026
22,A33G U63C C77G C79G,≤ 0.026
23,A33G U71G,≤ 0.026
24,A33G U76A,≤ 0.026

row,Variant,nonsense suppression
1,A33U,0.0699
2,A33U A54G,≤ 0.026
3,A33U A54G U76G,≤ 0.026
4,A33U A60C U70C U71A,≤ 0.026
5,A33U A74C,≤ 0.026
6,A33U A89U,≤ 0.026
7,A33U C56G U57A U58A G73A G78C,≤ 0.026
8,A33U C64A G88A,≤ 0.026
9,A33U C68G,≤ 0.026
10,A33U C68G A74C,≤ 0.026
11,A33U C68G C80A,≤ 0.026
12,A33U C68U C80U,≤ 0.026
13,A33U C72A,≤ 0.026
14,A33U C72U A74C,≤ 0.026
15,A33U C79U G85A,≤ 0.026
16,A33U G59C G61A,≤ 0.026
17,A33U G59C G61C,≤ 0.026
18,A33U G61C,≤ 0.026
19,A33U G61U G88C,≤ 0.026
20,A33U G65C,≤ 0.026
21,A33U G67U,≤ 0.026
22,A33U G67U U76C,≤ 0.026
23,A33U G69C A87U,≤ 0.026
24,A33U G84A,≤ 0.026

row,Variant,nonsense suppression
1,A33U G84C G88C,≤ 0.026
2,A33U G85A,0.0389
3,A33U G86A,≤ 0.026
4,A33U G88U,≤ 0.026
5,A33U U55C U63A U70C,≤ 0.026
6,A33U U57A A60G,≤ 0.026
7,A33U U57C,≤ 0.026
8,A33U U57C A62G,≤ 0.026
9,A33U U57C C72G A89C,≤ 0.026
10,A33U U58A G66A G69A C82G,≤ 0.026
11,A33U U58C G69C,≤ 0.026
12,A33U U63C U71G C77U,≤ 0.026
13,A33U U63G,≤ 0.026
14,A33U U63G C79U,≤ 0.026
15,A33U U70C,≤ 0.026
16,A33U U76C G84C,≤ 0.026
17,A33U U76G,≤ 0.026
18,C34A A60C G66U G73A,≤ 0.026
19,C34A A60G,≤ 0.026
20,C34A A60U,≤ 0.026
21,C34A A62C C75G G85C,≤ 0.026
22,C34A A62C U63G G88C,≤ 0.026
23,C34A A62U,≤ 0.026
24,C34A A62U G88U,≤ 0.026

row,Variant,nonsense suppression
1,C34A A74U,≤ 0.026
2,C34A C56U G61U,≤ 0.026
3,C34A C64A,≤ 0.026
4,C34A C68A A87G,≤ 0.026
5,C34A C68A A87U,≤ 0.026
6,C34A C82G,≤ 0.026
7,C34A C83A,≤ 0.026
8,C34A G61A A89G,≤ 0.026
9,C34A G65C,≤ 0.026
10,C34A G65C G85C,≤ 0.026
11,C34A G66C U76A,≤ 0.026
12,C34A G67C,≤ 0.026
13,C34A G67C C79G,≤ 0.026
14,C34A G69A C79G,≤ 0.026
15,C34A G85U,≤ 0.026
16,C34A G86U,≤ 0.026
17,C34A U35A A62G,≤ 0.026
18,C34A U35G,≤ 0.026
19,C34A U55C G69U A89U,≤ 0.026
20,C34A U57A,≤ 0.026
21,C34A U57A U71G,≤ 0.026
22,C34A U58A C77A,≤ 0.026
23,C34A U58C,≤ 0.026
